Test results reported in PubChem BioAssay AID2147 (National Center for Advancing Translational Sciences (NCATS), 2009).
Screen size: about 230,000 compounds; about 3,600 (1.6%) were called active. Inconclusive results, whose numbers are uncertain, are shown with a selection of clear calls. The call rests on the fitted dose curve; in most records, active means well fitted inhibition curve with a large enough effect (not every such curve was filed as active); inconclusive means small, poorly fitted or top-dose-only effect, or another doubt; inactive means no such curve, though single readings can be large or run the other way. A potency beside an inconclusive call is a rough fit, not a confirmed value.

molecular target: Lysine-specific demethylase 4E (Homo sapiens) (UniProt B2RXH2); assay: qHTS Assay for Inhibitors of Human Jumonji Domain Containing 2E (JMJD2E); settings: JMJD2E catalytic domain, FDH-coupled NADH fluorescence (FDH is formaldehyde dehydrogenase); series mostly up to 57.1 µM; activity change, negative = inhibition: at the top concentration
UniProt B2RXH2, sequence (B2RXH2 whole entry, looked up, the tested form may be a part): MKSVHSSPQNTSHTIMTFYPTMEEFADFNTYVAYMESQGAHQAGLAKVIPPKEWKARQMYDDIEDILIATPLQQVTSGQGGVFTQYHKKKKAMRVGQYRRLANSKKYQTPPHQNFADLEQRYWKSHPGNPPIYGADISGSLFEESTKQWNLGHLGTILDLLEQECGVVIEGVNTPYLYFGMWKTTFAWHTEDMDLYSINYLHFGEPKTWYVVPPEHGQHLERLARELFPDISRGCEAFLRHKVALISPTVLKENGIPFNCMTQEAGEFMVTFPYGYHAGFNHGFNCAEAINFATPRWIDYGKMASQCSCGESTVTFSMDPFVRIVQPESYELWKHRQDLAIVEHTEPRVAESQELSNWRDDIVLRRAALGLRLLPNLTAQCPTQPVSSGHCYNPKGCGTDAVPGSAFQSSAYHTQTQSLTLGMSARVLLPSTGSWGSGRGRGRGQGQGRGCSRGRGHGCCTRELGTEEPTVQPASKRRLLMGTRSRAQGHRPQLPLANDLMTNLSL
Further: nearly all actives have a fitted effect of over 50% in size.
Potency means the concentration at half of the fitted maximal effect; tags describe the fitted curve by direction and shape.
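Wherever activity change, negative = inhibition is given: 0% = wells with enzyme and -100% = buffer wells without enzyme.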

| SMILES | activity change, negative = inhibition | Potency |
| --- | --- | --- |
| N#CCc1nc2ccc(S(=O)(=O)N3CCOCC3)cc2s1 | inactive: 4.36% | – |
| CC(C)(C)c1nc(S(=O)(=O)c2ccc(Cl)cc2)c(N2CCOCC2)o1 | – | inconclusive: 5.62 µM [inhibitor, single point] |
| O=S(=O)(c1ccccc1)c1nc(-c2ccccc2)oc1N1CCOCC1 | inactive: -9.4% | – |
| COc1ccc(C(=O)C(c2ccccc2)N2CCOCC2)cc1 (stereo not drawn) | inactive: -6.61% | – |
| c1ccc(-c2nc(-c3cccs3)[nH]c2-c2ccccc2)cc1 | – | inconclusive: 25.1 µM [inhibitor, partial curve] |
| C#CCOCCOCCOCCNc1nc(N2CCN(C(=O)[C@H](C(C)C)n3cc(CCO)nn3)CC2)nc(N2CCN(C(=O)[C@H](CCCCN)n3cc(CCCC)nn3)CC2)n1 | – | inconclusive: 35.5 µM [inhibitor, single point] |
| COC(=O)c1ccccc1NC(=O)COC(=O)/C=C/c1ccco1 | inactive: 4.72% | – |
| CCCOc1ccc(N2C(=O)C/C(=C\c3ccccc3)C2=O)cc1 | – | inconclusive: 35.5 µM [inhibitor, single point] |
| O=C(N/N=C/c1cccnc1)c1cccc(S(=O)(=O)Nc2cccc(Cl)c2)c1 | inactive: -10.4% | – |
| C/C=C/Cn1c(N2CCCCCC2)nc2c1c(=O)[nH]c(=O)n2C | inactive: -16.4% | – |
| FC(F)(F)c1cccc(-c2cc3ccccc3nc2N2CCCC2)c1 | – | inconclusive: 28.2 µM [inhibitor, partial curve] |
| CCOc1ccc2[nH]c(C)c(CN3CCN(C)CC3)c(=O)c2c1 | – | inconclusive: 25.1 µM [inhibitor, partial curve] |
| N/C(COc1cc(Cl)cc(Cl)c1)=N\O | inactive: 1.52% | – |
| O=C(NCc1ccccc1)C(c1ccco1)N(C(=O)c1cnccn1)c1ccc(F)cc1 (stereo not drawn) | inactive: 19.2% | – |
| N#CC1=C2N=C(N)c3ccccc3N2C2=C(C(=O)CCC2)C1c1ccc(Cl)cc1 (stereo not drawn) | inactive: -7.43% | – |
| Cc1cccc(C)c1OCC(N)C(C)C (stereo not drawn) | inactive: 0.128% | – |
| C=CCOc1ccccc1CNc1ccc2c(c1)OCCO2 | – | inconclusive: 28.2 µM [inhibitor, partial curve] |
| O=C(CCNS(=O)(=O)c1cccc2nsnc12)NC1CCCc2ccccc21 (stereo not drawn) | inactive: -0.578% | – |
| CCNC(=S)N(Cc1cccs1)Cc1cc2cc(OCC)ccc2[nH]c1=O | – | inconclusive: 35.5 µM [inhibitor, single point] |
| c1ccc(-c2nc(-c3cccc4ccccc34)c(NC3CCCCC3)o2)cc1 | inactive: -17.3% | – |
| Clc1ccc(Nc2nc(NCCN3CCOCC3)nc(N3CCOCC3)n2)cc1 | – | inconclusive: 39.8 µM [inhibitor, single point] |
| Cc1ccccc1OCC(=O)Nc1cccc2nsnc12 | – | inconclusive: 28.2 µM [inhibitor, partial curve] |
| O=C(NCCN1C(=O)S/C(=C\c2ccc(F)cc2)C1=O)c1cccc(S(=O)(=O)N2CCOCC2)c1 | – | inconclusive: 35.5 µM [inhibitor, single point] |
| CCn1c(SC)nnc1-c1nn(-c2ccccc2)ccc1=O | inactive: -7.3% | – |

| SMILES | activity change, negative = inhibition | Potency |
| --- | --- | --- |
| Clc1ccc(-c2nc3ccccc3nc2-c2ccccc2)cc1 | – | inconclusive: 22.4 µM [inhibitor, single point] |
| S=c1[nH]nc(Nc2ccccc2)s1 | – | active: 17.8 µM |
| O=C(O)c1cc(Nc2nc(N3CCOCC3)nc(N3CCOCC3)n2)ccc1Cl | inactive: 0.308% | – |
| CC[n+]1c(S(=O)(=O)[O-])ccc2ccc(C)cc21 | – | inconclusive: 31.6 µM [inhibitor, single point] |
| O=C(NC1CCCCC1)C(c1ccc(O)c(O)c1)N(C(=O)Cn1nnc2ccccc21)c1cccc(O)c1 (stereo not drawn) | – | active: 15.8 µM |
| CCN(CC)S(=O)(=O)c1ccc2nc(COC(=O)c3n[nH]c4ccccc34)[nH]c2c1 | – | inconclusive: 28.2 µM [inhibitor, partial curve] |
| CN1CCCc2cc3c(C(F)(F)F)cc(=O)oc3nc21 | – | inconclusive: 31.6 µM [inhibitor, partial curve] |
| COC(=O)c1ccc(C(NC(=O)OCc2ccccc2)/C(=C/[C@@H](C)C(=O)NCc2nc3ccccc3n2C)c2cccnc2)cc1 (stereo partly drawn) | inactive: -6.69% | – |
| Cc1cc(C)cc(Oc2nc3ccccn3c(=O)c2/C=C(\C#N)C(=O)NC2CCS(=O)(=O)C2)c1 (stereo not drawn) | – | inconclusive: 15.8 µM [inhibitor, partial curve] |
| COc1cccc(-n2sc3c(c2=S)-c2cc(OC)ccc2NC3(C)C)c1 | inactive: -3.13% | – |
| C[C@H](NC(=O)CCn1nnc2ccccc2c1=O)C(=O)O | – | inconclusive: 39.8 µM [inhibitor, single point] |
| Cc1cc2nc(C(C)(C)C)cc(N)n2n1 | – | inconclusive: 28.2 µM [inhibitor, partial curve] |
| Cc1ccc2nc(-c3ccc(N4C(=O)CC(N5CCN(CCO)CC5)C4=O)cc3)sc2c1 (stereo not drawn) | – | inconclusive: 15.8 µM [inhibitor, partial curve] |
| Cc1ccn2cc(-c3cccc(NS(C)(=O)=O)c3)nc2c1 | – | inconclusive: 8.91 µM [inhibitor, partial curve] |
| O=C1c2ccccc2NC(c2ccco2)N1O (stereo not drawn) | – | inconclusive: 25.1 µM [inhibitor, single point] |
| O=C(NN1C(=O)c2ccccc2C1=O)C1C2CCCCC21 (stereo not drawn) | inactive: -2.93% | – |
| Clc1cc2nc3ccccn3c2cc1Cl | – | inconclusive: 25.1 µM [inhibitor, partial curve] |
| CCOC(=O)c1sc(NC(=O)CCCCl)nc1C | – | inconclusive: 28.2 µM [inhibitor, single point] |
| O=[N+]([O-])c1cccc(-c2csc(Nc3ccccc3)n2)c1 | inactive: 1.39% | – |
| COCCNC(=O)/C(C#N)=C/c1cn(CC(=O)NCc2ccco2)c2ccccc12 | – | inconclusive: 22.4 µM [inhibitor, single point] |
| C=CCn1c(SCC(=O)c2ccccc2)nnc1-c1cc2ccccc2o1 | inactive: -5.36% | – |
| COc1ccc2cc(C3CC(c4ccco4)=NN3C(=O)CCC(=O)O)c(Cl)nc2c1 (stereo not drawn) | – | inconclusive: 31.6 µM [inhibitor, single point] |
| CCCc1cc(C(=O)Nc2sc3c(c2C#N)CCC3)no1 | – | inconclusive: 35.5 µM [inhibitor, single point] |
| C/C(=N\NC(=O)c1nc2ccccn2c1C)c1cc2ccccc2o1 | – | inconclusive: 39.8 µM [inhibitor, single point] |
